From the supplement of paper PMC12217912
The list shows a part of the results. The full chains were built here from the parent and the listed change. Inactive controls read about 0.05.

B1: TEV protease; numbered along this chain (parent)
chain: MGESLFKGPRDYNPISSSICHLTNESDGHTTSLYGIGFGPFIITNKHLFRRNNGTLVVQSLHGVFKVKDTTTLQQHLVDGRDMIIIRMPKDFPPFPQKLKFREPQREERICLVTTNFQTKSMSSMVSDTSCTFPSGDGIFWKHWIQTKDGQCGSPLVSTRDGFIVGIHSASNFTNTNNYFTSVPKNFMELLTNQEAQQWVSGWRLNADSVLWGGHKVFMVKPEEPFQPVKEATQL

Variants of: B1
Assay: raw area under fraction-flipped curve 0-4 h after induction (AUC4h, not background-subtracted), DNA-recorder readout of cleavage of the substrate (dimensionless); higher = more cleavage of the substrate by the protease variant
Conditions: temperature: 34 °C; time window: 0-4 h after rhamnose induction
Method: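 In vivo DNA recorder in E. coli TOP10(DE3) ΔrhaA at 34 °C. Each TEVp single-site mutant (parent TEVp 0) is paired with a single-site variant of the 7-mer TEVs (canonical ENLYFQ|S). The substrate sits between flexible linkers in a Bxb1-sfGFP-TEVs-SsrA fusion, so cleavage stabilises Bxb1 and speeds flipping of a recombination array, read by NGS. The value is the raw area under the fraction-flipped curve over 0-4 h after rhamnose induction (AUC4h), with ≥20 reads per time point. It is not background-subtracted; inactive controls average about 0.047.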
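Also: Bxb1 expression induced with 0.2% (w/v) L-rhamnose at OD600 near 0.5, cultures sampled hourly, flipped fraction per protease–substrate barcode pair counted by paired-end Illumina sequencing.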

Variant | area with substrate ENLYAQS | area with substrate ENLYEQS | area with substrate ENLYGQS | area with substrate ENLYHQS | area with substrate ENLYKQS | area with substrate ENLYMQS | area with substrate ENLYNQS | area with substrate ENLYRQS | area with substrate ENLYSQS | area with substrate ENLYTQS | area with substrate ENLYVQS | area with substrate ENLYYQS | area with substrate ENLYDQS | area with substrate ENLYIQS | area with substrate ENLYPQS | area with substrate ENLYQQS | area with substrate ENLYWQS | area with substrate ENLYLQS | area with substrate ENLYCQS
Q197V | 0.0766 | 0.0686 | 0.0584 | 0.0526 | 0.0613 | 0.0804 | 0.0761 | 0.0557 | 0.0619 | 0.115 | 0.16 | 0.0718 |  |  |  |  |  |  | 
Q198L | 0.0721 | 0.0584 | 0.0399 | 0.066 | 0.0658 |  | 0.0713 | 0.0584 |  | 0.0734 | 0.0997 | 0.0635 | 0.0605 | 0.102 | 0.0178 | 0.06 | 0.0646 |  | 
Q198N | 0.078 | 0.0699 |  | 0.0712 |  |  |  | 0.0566 | 0.074 |  | 0.11 |  |  |  | 0.0628 | 0.0636 | 0.076 | 0.0915 | 
W199F | 0.0687 | 0.0629 | 0.0489 | 0.0712 |  | 0.0694 | 0.0645 | 0.059 |  | 0.0613 |  | 0.0638 | 0.0598 | 0.0745 | 0.0628 |  |  |  | 0.0685
S201G | 0.0604 | 0.0639 | 0.0598 | 0.0613 | 0.0916 | 0.0622 | 0.0569 | 0.0534 |  | 0.0752 | 0.0632 | 0.0656 | 0.068 | 0.091 | 0.0545 | 0.0613 | 0.0629 |  | 
R204G | 0.0651 | 0.0605 | 0.067 | 0.0666 | 0.0161 | 0.087 | 0.0489 | 0.0573 | 0.0264 | 0.0717 | 0.0913 | 0.0762 | 0.0736 | 0.114 | 0.0665 | 0.0703 | 0.05 |  | 
R204M | 0.0631 | 0.062 | 0.0666 | 0.0713 | 0.0559 | 0.1 | 0.0673 | 0.066 | 0.087 | 0.0889 | 0.112 | 0.0614 | 0.0568 | 0.153 | 0.0719 | 0.072 | 0.101 |  | 0.102
A207K | 0.0656 | 0.0914 | 0.0657 | 0.0665 | 0.0619 | 0.0781 | 0.0592 |  |  |  |  |  | 0.0701 | 0.0604 | 0.0759 |  | 0.0817 | 0.0809 | 
V210N | 0.0749 | 0.0527 | 0.0564 | 0.0619 | 0.0166 | 0.0655 | 0.0654 | 0.0586 |  | 0.0666 |  | 0.0723 |  |  |  | 0.0617 | 0.0505 |  | 
W212G | 0.0663 |  |  | 0.0597 |  | 0.0528 |  |  | 0.0538 |  | 0.0789 | 0.0586 | 0.0639 | 0.0494 |  | 0.0465 |  | 0.0465 | 
G213R | 0.0602 | 0.0455 | 0.0688 | 0.0566 | 0.0561 | 0.0575 | 0.0632 | 0.0526 | 0.0589 | 0.0605 | 0.065 | 0.0544 | 0.0577 | 0.0565 | 0.0503 | 0.0595 | 0.0594 | 0.0548 | 0.0614
M219W | 0.0531 | 0.0642 | 0.0679 | 0.0547 | 0.0653 | 0.0932 | 0.0601 | 0.0516 |  |  |  | 0.0728 | 0.0517 | 0.0809 | 0.0683 | 0.0611 | 0.084 | 0.0773 | 0.081
V220E | 0.0495 |  |  | 0.0702 |  | 0.11 | 0.0606 |  | 0.043 |  | 0.112 | 0.0675 | 0.0622 | 0.129 | 0.0784 | 0.0949 | 0.0756 |  | 0.127
V220G | 0.0721 | 0.0756 | 0.0665 |  | 0.0585 | 0.0829 | 0.0675 | 0.0575 | 0.0689 |  | 0.132 | 0.0673 |  | 0.104 | 0.069 |  | 0.086 |  | 0.095
E223N | 0.0512 | 0.0708 | 0.0581 |  | 0.0527 | 0.0834 | 0.0644 |  | 0.0714 |  | 0.0731 |  | 0.0606 | 0.131 | 0.0556 | 0.0634 | 0.0757 |  | 
P225C | 0.0723 | 0.0642 |  | 0.0638 | 0.0623 | 0.0503 | 0.0768 |  |  | 0.0698 |  | 0.0609 |  | 0.0997 |  |  | 0.0764 |  | 
F226E | 0.0487 | 0.0924 | 0.0691 | 0.0713 | 0.108 |  | 0.069 | 0.0545 | 0.0589 |  | 0.097 | 0.0638 | 0.0765 |  | 0.0739 |  | 0.064 |  | 0.109
V229E | 0.074 | 0.0766 | 0.0581 | 0.0724 | 0.0687 | 0.0878 | 0.0733 | 0.0325 | 0.0892 |  | 0.114 | 0.0747 | 0.0399 | 0.0942 | 0.0643 |  |  | 0.0748 | 
V229K | 0.0808 | 0.0205 |  | 0.0769 |  | 0.0927 | 0.0781 | 0.066 | 0.0724 |  | 0.127 | 0.0881 | 0.0637 | 0.104 | 0.0766 | 0.0618 | 0.152 |  | 
E231N | 0.0937 |  |  | 0.0783 | 0.0251 | 0.0679 |  | 0.0651 |  | 0.0678 | 0.104 | 0.0671 | 0.0633 | 0.142 |  |  |  | 0.0788 | 
T233E | 0.0672 |  | 0.0735 | 0.0563 |  |  | 0.0728 | 0.0745 | 0.0625 | 0.0825 |  |  |  |  |  |  |  | 0.0933 | 
Q234T | 0.0873 | 0.0668 | 0.101 | 0.0721 | 0.0651 | 0.0907 | 0.0707 | 0.0641 | 0.0738 | 0.0674 | 0.117 |  | 0.0498 |  | 0.0865 | 0.054 | 0.0895 | 0.0933 | 
Q234V | 0.0551 | 0.0715 | 0.063 |  | 0.0615 | 0.0802 | 0.0669 | 0.06 | 0.0709 | 0.0832 | 0.106 | 0.0651 | 0.0759 | 0.119 | 0.0685 | 0.0772 | 0.0625 |  | 0.0736
L235Q | 0.0785 | 0.0712 | 0.0591 | 0.0695 | 0.0576 | 0.0619 | 0.0806 | 0.0645 | 0.0792 |  | 0.106 | 0.0575 | 0.0556 | 0.102 | 0.0778 | 0.0622 | 0.0771 |  | 0.0977
N13H |  | 0.0665 | 0.0689 | 0.0662 | 0.21 | 0.0994 | 0.0726 | 0.0491 | 0.0786 | 0.0787 | 0.168 |  | 0.0534 | 0.14 | 0.0834 |  | 0.0699 | 0.105 | 0.106
